Reference: PubChem BioAssay AID1347165 (National Center for Advancing Translational Sciences (NCATS), 2019)
The whole screen tested about 220,000 compounds, of which about 5,700 (2.6%) were called active. Inconclusive results, whose numbers are uncertain, are shown with a selection of clear calls. Calls follow the shape of the dose curve; as a rule, active = well fitted inhibition curve with a large enough effect; inconclusive = small, poorly fitted or top-dose-only effect; inactive = no such curve, though single readings can be large or run the other way. Where the call is inconclusive, the potency comes from a doubtful curve fit.

biological target: Lysine-specific demethylase 5B (Homo sapiens) (UniProt Q9UGL1); assay: Primary screen for KDM5B Histone Demethylases FDH-coupled qHTS; conditions: FDH-coupled NADH fluorescence (FDH is formaldehyde dehydrogenase); activity change, negative = inhibition: at 57.7 µM (top of the series) unless noted; also: nearly all actives have a fitted effect of over 70% in size; as to activity change, negative = inhibition: 0% is about no effect
UniProt Q9UGL1, sequence (Q9UGL1 whole entry, looked up): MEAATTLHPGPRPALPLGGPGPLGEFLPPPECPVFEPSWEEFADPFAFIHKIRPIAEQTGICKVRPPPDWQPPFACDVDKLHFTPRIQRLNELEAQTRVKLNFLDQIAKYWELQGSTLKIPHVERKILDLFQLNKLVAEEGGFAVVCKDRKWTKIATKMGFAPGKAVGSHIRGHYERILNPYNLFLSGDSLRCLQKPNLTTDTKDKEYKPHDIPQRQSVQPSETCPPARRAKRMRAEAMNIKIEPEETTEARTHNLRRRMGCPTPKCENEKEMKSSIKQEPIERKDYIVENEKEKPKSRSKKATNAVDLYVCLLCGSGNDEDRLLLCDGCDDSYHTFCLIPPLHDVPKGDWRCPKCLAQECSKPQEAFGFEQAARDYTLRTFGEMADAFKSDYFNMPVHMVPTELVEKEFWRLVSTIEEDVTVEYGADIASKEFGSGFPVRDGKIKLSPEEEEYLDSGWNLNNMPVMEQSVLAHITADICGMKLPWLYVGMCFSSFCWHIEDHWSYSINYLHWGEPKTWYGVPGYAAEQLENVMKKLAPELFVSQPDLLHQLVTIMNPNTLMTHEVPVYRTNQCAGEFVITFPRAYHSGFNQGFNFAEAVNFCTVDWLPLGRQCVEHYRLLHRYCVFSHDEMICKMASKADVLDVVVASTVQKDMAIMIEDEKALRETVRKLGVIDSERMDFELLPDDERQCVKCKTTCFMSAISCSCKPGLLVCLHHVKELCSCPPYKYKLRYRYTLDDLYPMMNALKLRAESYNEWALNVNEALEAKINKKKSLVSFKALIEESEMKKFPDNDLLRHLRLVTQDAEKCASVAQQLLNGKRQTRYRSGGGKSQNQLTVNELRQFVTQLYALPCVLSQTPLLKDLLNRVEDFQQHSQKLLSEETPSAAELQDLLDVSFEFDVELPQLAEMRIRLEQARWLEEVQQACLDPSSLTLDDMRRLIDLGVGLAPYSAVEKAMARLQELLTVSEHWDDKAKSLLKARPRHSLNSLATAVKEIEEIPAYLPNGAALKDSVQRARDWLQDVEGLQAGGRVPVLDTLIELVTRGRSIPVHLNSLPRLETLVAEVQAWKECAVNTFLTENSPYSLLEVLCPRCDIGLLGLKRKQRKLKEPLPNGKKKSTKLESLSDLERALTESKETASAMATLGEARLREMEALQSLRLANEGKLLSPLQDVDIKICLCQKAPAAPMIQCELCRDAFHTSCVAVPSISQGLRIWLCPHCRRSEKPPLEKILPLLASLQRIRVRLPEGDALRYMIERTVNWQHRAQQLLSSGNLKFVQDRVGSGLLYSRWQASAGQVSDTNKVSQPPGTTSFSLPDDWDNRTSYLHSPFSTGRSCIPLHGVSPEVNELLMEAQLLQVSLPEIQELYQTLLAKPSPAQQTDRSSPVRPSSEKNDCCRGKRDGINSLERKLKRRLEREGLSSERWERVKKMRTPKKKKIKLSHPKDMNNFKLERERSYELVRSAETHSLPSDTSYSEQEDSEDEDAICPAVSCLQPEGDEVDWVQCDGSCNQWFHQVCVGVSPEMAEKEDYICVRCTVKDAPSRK
Outline: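 qHTS format, multiple compound concentrations. Buffer 50 mM HEPES pH 7.5/0.01% Tween-20; 200 nM KDM5BΔAP final; 10 min compound preincubation; substrate-mix levels 12.5 µM peptide, 25 µM α-KG, 0.25 mM NAD⁺; 30 min RT; ΔRFU.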
Potency is read from the fitted curve at half-maximal effect; tags tell the direction and shape of the fitted curve.

Row | Compound | Potency | activity change, negative = inhibition
1 | Cc1ccc(C)c(/C=C/c2ccc3cccc(O)c3n2)c1 | inconclusive: 39.8 µM [inhibitor, single point] | –
2 | CCc1ccccc1NC(=O)Nc1cc(C(=O)NCc2ccc(C(C)C)cc2)ccc1N1CCCC1 | inconclusive: 39.8 µM [inhibitor, single point] | –
3 | CC(C)c1nc2oc3c(N(CCO)CCO)ncnc3c2c2c1CCC2 | – | inactive: -12.6%
4 | Cc1nn(-c2ccc(F)cc2)c(Oc2ccccc2F)c1CCC(=O)NCc1ccco1 | inconclusive: 28.2 µM [inhibitor, partial curve, poor fit] | –
5 | COc1ccc(-c2ccc3nnc(CNC(=O)CCc4cccc(OC)c4)n3n2)cc1 | inconclusive: 25.1 µM [inhibitor, partial curve, poor fit] | –
6 | CCc1ccc(C2CC(=O)N3CN(Cc4ccccc4)CSC3=C2C#N)cc1 (stereo not drawn) | inconclusive: 10 µM [inhibitor, partial curve, poor fit] | –
7 | Clc1ccc(-c2ccc(CNc3ncn[nH]3)o2)cc1 | – | inactive: -12.8%
8 | N#Cc1ccccc1NC(=O)c1cc2c(=O)n3ccccc3nc2s1 | inconclusive: 14.1 µM [inhibitor, partial curve, poor fit] | –
9 | CCN(CC)S(=O)(=O)c1ccc2c(c1)nc(CN(C)C(=O)c1cccc(Cl)c1)n2C | – | inactive: -1.05%
10 | COc1ccccc1CC(=O)NC1CCN(c2cc(-c3ccccc3)[nH]n2)C1 (stereo not drawn) | active: 15.8 µM | –
11 | Cc1cc(CNC(=O)c2cc(-c3ccc(N4CCOCC4)cc3)cc3c2OCCN3C)no1 | inconclusive: 20 µM [inhibitor, partial curve] | –
12 | CN(C)C[C@@H]1CN(Cc2cccnc2)C[C@H]1NC(=O)Cc1cccc(F)c1 | inconclusive: 22.4 µM [inhibitor, partial curve, poor fit] | –
13 | COc1cccc2sc(N(Cc3cccnc3)C(=O)COc3ccccc3)nc12 | – | inconclusive: -34.9% [inhibitor]
14 | CC(=O)NC1(C)CCN(Cc2cccc(-c3ccccc3)c2)C1 (stereo not drawn) | inconclusive: 56.2 µM [inhibitor, single point] | –
15 | CCOc1cc(C=O)cc(Br)c1OC(=O)c1ccc(OC)cc1 | – | inactive: -16.2%
16 | O=C(NC1CC(=O)N(Cc2ccccc2C(F)(F)F)C1)c1ccsc1 (stereo not drawn) | inconclusive: 6.31 µM [inhibitor, single point] | –
17 | COc1cccc(CN2CCC(C(=O)Nc3ccccc3-c3cccc(OC)c3)CC2)c1 | inconclusive: 35.5 µM [inhibitor, single point] | –
18 | Cc1nn(-c2ccccc2)c(OC(=O)c2ccccc2F)c1S(=O)(=O)c1ccccc1 | inconclusive: 17.8 µM [inhibitor, partial curve, poor fit] | –
19 | CN(C(=O)C(C)(C)C)C1CCCc2ccccc21 (stereo not drawn) | inconclusive: 31.6 µM [inhibitor, partial curve, poor fit] | –
20 | CCOc1ccc(C(=O)Nc2nnc(SCc3cc(=O)c4cc(C)ccc4[nH]3)s2)cc1 | inconclusive: 31.6 µM [inhibitor, partial curve, poor fit] | –
21 | COc1ccc(C2C3=C(CC(C)(C)CC3=O)Nc3n[nH]c(-c4ccccc4)c32)cc1OC (stereo not drawn) | inconclusive: 20 µM [inhibitor, partial curve, poor fit] | –
22 | CC1CCCCN1CCN(C)c1nc(-c2ccncc2)nc2c1cnn2C (stereo not drawn) | inconclusive: 25.1 µM [inhibitor, partial curve, poor fit] | –

Row | Compound | Potency | activity change, negative = inhibition
23 | Cc1ccc(NC(=O)CSc2nc(=O)[nH]c3c2CCCC3)cc1 | – | inactive: -9.94%
24 | O=C(Nc1ccc([C@@H](O)[C@H]2COCC(=O)N2Cc2ccc(F)cc2)cc1)c1ccc2c(c1)OCO2 | – | inactive: 15%
25 | Cc1cccn2c(Nc3ccccc3)c(-c3ccc(N4CCOCC4)cc3)nc12 | inconclusive: 2.82 µM [inhibitor, partial curve, poor fit] | –
26 | Cc1oc2c(c1C(=O)N1CCCC1)CN(Cc1ccc(F)cc1)CC2 | – | inactive: -2.51%
27 | CC(C)c1ccc(OC(=O)c2cc(-c3ccc4c(c3)OCCO4)on2)cc1 | inconclusive: 1.26 µM [inhibitor, full curve, poor fit] | –
28 | CCN(CC)S(=O)(=O)c1ccc(NCc2ccccn2)nc1 | inconclusive: 28.2 µM [inhibitor, partial curve, poor fit] | –
29 | O=S(=O)(Nc1cc(Cl)cc(Cl)c1)c1cccc(C(F)(F)F)c1 | – | inactive: 10.6%
30 | CC(CO)Nc1ncnc2c1CN(C1CCCNC1)C(=O)CN2C (stereo not drawn) | inconclusive: 44.7 µM [inhibitor, partial curve] | –
31 | CN(C)C[C@@H]1CN(c2ncccn2)C[C@H]1NC(=O)c1cnccn1 | active: 25.1 µM | –
32 | Nc1c(N(CCO)C(=O)C2CCCCC2)c(=O)[nH]c(=O)n1Cc1ccccc1 | inconclusive: 28.2 µM [inhibitor, partial curve, poor fit] | –
33 | CC(C)NC(=O)c1ccc2c(Cl)c3c(nc2c1)CCCC3 | – | inactive: 26.3%
34 | Cc1nc(SCC(=O)Nc2ccc3ccccc3c2)oc1C | inconclusive: 31.6 µM [inhibitor, single point] | –
35 | COc1ccc(-c2noc([C@@H](C)NC(=O)c3nc4ccccc4[nH]3)c2C(=O)O)cc1 | active: 28.2 µM | –
36 | O=C(O)CN1C(=O)/C(=C\c2ccccc2OCc2ccc(Cl)cc2)SC1=S | inconclusive: 20 µM [inhibitor, single point] | –
37 | CN(C)c1cccc(C(=O)NC2CCN(c3cnn(C)c(=O)c3)CC2)c1 | active: 25.1 µM | –
38 | Cc1noc(C)c1CC(=O)N[C@@H]1CN(c2ccccn2)C[C@H]1CN(C)C | active: 31.6 µM | –
39 | O=S(=O)(Cc1ccc(Cl)cc1)c1nc2ccccc2nc1NC1CCCC1 | – | inactive: -6.31%
40 | CCC(CC)c1nc(COC(=O)C2=CN(Cc3ccc(OC)cc3)S(=O)(=O)N=C2C)no1 | inconclusive: 15.8 µM [inhibitor, partial curve] | –
41 | CCOC(=O)COc1ccc2c(=O)c(Oc3ccccc3OCC)c(C)oc2c1 | – | inactive: 16%
42 | Cc1ccc(CNC(=O)c2nc(SCc3ccc(C)cc3)ncc2Cl)cc1 | – | inactive: -19.3%
43 | COc1ccc(S(=O)(=O)N2CCN(Cc3cc(OC)c(OC)cc3OC)CC2)cc1 | inconclusive: 10 µM [inhibitor, partial curve, poor fit] | –
